{
  "source": "patent US20240424051A1",
  "about": "“COMPOSITION FOR TREATING […] OS[…] MECHANISM PROMOTING FORMATION OF MUSCLE FIBERS OR INHIBITING OSTEOCLASTOGENESIS, […]-L-PHENYLALANYL-L-PROLINE DIPEPTIDES” (CELLBION CO., LTD, priority 2021, published 2024)",
  "system": "bone marrow-derived macrophages (BMM)",
  "test": "Osteoclast differentiation and TRAP staining",
  "conditions": "M-CSF 30 ng/ml and RANKL 100 ng/ml, 4 days, TRAP staining, osteoclasts having 5 or more nuclei, FIG. 2",
  "text": "The differentiation of osteoclasts occurs by intercellular binding as the differentiation of individual bone marrow-derived macrophages proceeds. Accordingly, only bone marrow-derived macrophages were isolated and cultured, and the separated macrophages were differentiated into osteoclasts.\nIn order to determine the degree of differentiation of the differentiated osteoclasts, TRAP (tartrate-resistant acid phosphatase) stain assay was used. When macrophages differentiate into osteoclasts, they produce TRAP, which can be stained to quantify the degree of osteoclast differentiation. In addition, in order to confirm the maturity of osteoclasts, the number of cells constituting osteoclasts was identified. As described above, the degree of differentiation of osteoclasts was analyzed using two indicators: the number of nuclei in osteoclast and TRAP (tartrate-resistant acid phosphatase) stain. […]\nTo generate osteoclasts, BMMs were cultured in a 48-well plate (4×10^4 cells/well) for 4 days with α-MEM complete medium containing 10% (v/v) heat-inactivated fetal bovine serum (FBS) and 50 units/ml of penicillin/streptomycin in the presence of M-CSF (30 ng/ml) and RANKL (100 ng/ml). […] The degree of differentiation was evaluated by determining the number of differentiated osteoclasts per well based on osteoclasts having 5 or more nuclei in the cell.",
  "data": [
    {"smiles": "O=C1NC(Cc2ccccc2)C(=O)N2CCCC12", "note": "[cFP, cyclo-L-phenylalanyl-L-proline]", "values": [
      {"measurement": "differentiation of bone marrow-derived macrophages into osteoclasts", "result": "inhibited in a concentration-dependent manner"}
    ]}
  ]
}
